Laboratory results as given in US20220073613A1, “ACTIVATABLE MASKED ANTI-CTLA4 BINDING PROTEINS” (Xilio Development, Inc., priority 2018, published 2022).
Substitutions are numbered along the chain they refer to.

B1: Antibody 2-20: masked Antibody 2-6: mask CPFPALELC, cleavable peptide RAAAVKSP; SEQ ID NO: 429 and 421 (protein)
light: ACPFPALELCGGSSPPRAAAVKSPSGGEIVLTQSPDFQSVTPKEKVTITCSANSALSYMYWYQQKPDQSPKLWVHGTSNLASGVPSRFSGSGSGTDFTLTINSLEAEDAATYYCHHWSNTQWTFGGGTKVEIKRTVAAPSVFIFPPSDEQLKSGTASVVCLLNNFYPREAKVQWKVDNALQSGNSQESVTEQDSKDSTYSLSSTLTLSKADYEKHKVYACEVTHQGLSSPVTKSFNRGEC
heavy: QVQLVQSGAEVKKPGSSVKVSCKASGYTFTNYFMNWVRQAPGQGLEWMGRVDPEQGRADYAEKFKKRVTITADKSTSTAYMELSSLRSEDTAVYYCARRAMDNYGFAYWGQGTLVTVSS[human IgG1 constant region with changes left out here]
B2: Antibody 2-19: masked Antibody 2-6: mask CPFPALELC, cleavable peptide HEQLTV; SEQ ID NO: 426 and 421 (protein)
light: ACPFPALELCGGSSPPHEQLTVSGGEIVLTQSPDFQSVTPKEKVTITCSANSALSYMYWYQQKPDQSPKLWVHGTSNLASGVPSRFSGSGSGTDFTLTINSLEAEDAATYYCHHWSNTQWTFGGGTKVEIKRTVAAPSVFIFPPSDEQLKSGTASVVCLLNNFYPREAKVQWKVDNALQSGNSQESVTEQDSKDSTYSLSSTLTLSKADYEKHKVYACEVTHQGLSSPVTKSFNRGEC
heavy: QVQLVQSGAEVKKPGSSVKVSCKASGYTFTNYFMNWVRQAPGQGLEWMGRVDPEQGRADYAEKFKKRVTITADKSTSTAYMELSSLRSEDTAVYYCARRAMDNYGFAYWGQGTLVTVSS[human IgG1 constant region with changes left out here]
B3: Antibody 2-17: masked Antibody 2-6: mask CPFPALELC, cleavable peptide GGIGQLTA; SEQ ID NO: 428 and 421 (protein)
light: ACPFPALELCSSPSPSGGGGIGQLTASGGEIVLTQSPDFQSVTPKEKVTITCSANSALSYMYWYQQKPDQSPKLWVHGTSNLASGVPSRFSGSGSGTDFTLTINSLEAEDAATYYCHHWSNTQWTFGGGTKVEIKRTVAAPSVFIFPPSDEQLKSGTASVVCLLNNFYPREAKVQWKVDNALQSGNSQESVTEQDSKDSTYSLSSTLTLSKADYEKHKVYACEVTHQGLSSPVTKSFNRGEC
heavy: QVQLVQSGAEVKKPGSSVKVSCKASGYTFTNYFMNWVRQAPGQGLEWMGRVDPEQGRADYAEKFKKRVTITADKSTSTAYMELSSLRSEDTAVYYCARRAMDNYGFAYWGQGTLVTVSS[human IgG1 constant region with changes left out here]
B4: Antibody 2-18: masked Antibody 2-6: mask CPFPALELC, cleavable peptide MPYDLYHP; SEQ ID NO: 425 and 421 (protein)
light: ACPFPALELCGGPGSSPMPYDLYHPSGGEIVLTQSPDFQSVTPKEKVTITCSANSALSYMYWYQQKPDQSPKLWVHGTSNLASGVPSRFSGSGSGTDFTLTINSLEAEDAATYYCHHWSNTQWTFGGGTKVEIKRTVAAPSVFIFPPSDEQLKSGTASVVCLLNNFYPREAKVQWKVDNALQSGNSQESVTEQDSKDSTYSLSSTLTLSKADYEKHKVYACEVTHQGLSSPVTKSFNRGEC
heavy: QVQLVQSGAEVKKPGSSVKVSCKASGYTFTNYFMNWVRQAPGQGLEWMGRVDPEQGRADYAEKFKKRVTITADKSTSTAYMELSSLRSEDTAVYYCARRAMDNYGFAYWGQGTLVTVSS[human IgG1 constant region with changes left out here]
B5: Antibody 2-21: masked Antibody 2-6: mask CPFPALELC, cleavable peptide TSVLMAAP; SEQ ID NO: 430 and 421 (protein)
light: B1 light with R17T, A18S, A19V, A20L, V21M, K22A, S23A
heavy: QVQLVQSGAEVKKPGSSVKVSCKASGYTFTNYFMNWVRQAPGQGLEWMGRVDPEQGRADYAEKFKKRVTITADKSTSTAYMELSSLRSEDTAVYYCARRAMDNYGFAYWGQGTLVTVSS[human IgG1 constant region with changes left out here]

Experiment: In vivo cleavage of masked antibodies in plasma of healthy mice, Western blot
Set-up: species or system C57BL/6J mice
Conditions: 200 μg i.p., days 2, 4, 7
Procedure: Healthy, non-tumor bearing, seven-eight week old female C57BL/6J mice were injected intraperitoneally on day 0 with 200 μg of masked forms of Antibody 2. On days two and four, blood was collected via RO sinus and processed with LiHep for plasma isolation. On day seven, blood was collected via cardiac puncture and processed with LiHep for plasma isolation. Plasma was aliquoted and stored at −80° C. until Western blot analysis. Standard samples where the masked antibody was treated in the presence or absence of protease in vitro were included as positive controls. For Western blot analysis, plasma samples were diluted in PBS, then in Laemmli Sample Buffer and βME. Samples were heated at 95° C. then loaded on a Criterion TGX Stain-free Precast gel. SDS-PAGE was performed at 200 V for forty-two minutes. Protein was transferred to nitrocellulose membrane and blocked in 1×TBS with 1% Casein Blocker for one hour at room temperature shaking. The membrane was probed with HRP-conjugated Rb mAb to human Kappa Light Chain [clone EPR5367-8], diluted 1:10,000 in Casein Blocker, overnight at 4° C. shaking. The membrane was washed three times with PBS-Tween and developed with SuperSignal ELISA Pico Chemiluminescent Substrate. Raw data was analyzed with ImageLab software. Activation percentage was calculated as follows: the intensity of the activated band/(intensity of the activated band+intensity of the masked non-activated band)*100%.
(§1) In vivo experiment was performed in two cohorts across two weeks, with Antibody 2-14 included in both cohorts. Antibodies that were tested include Antibody 2-14, Antibody 2-15, Antibody 2-16, Antibody 2-17, Antibody 2-18, Antibody 2-19, Antibody 2-20, and Antibody 2-21. Antibody 2-15 includes a cleavable peptide sequence that is non-cleavable, for use as a negative control.

| Molecule | activation in vivo (cleavage in plasma) |
| --- | --- |
| B1 | activated in vivo |
| B2 | not detected |
| B3 | not detected |
| B4 | not detected |
| B5 | not detected |

Experiment: In vivo cleavage of masked antibodies in plasma of MC38 tumor-bearing mice, Western blot
Set-up: species or system C57BL/6J mice
Conditions: MC38-bearing mice, 200 μg i.p., days 2, 4, 7
Procedure: MC38 cells (1×10^6) were injected subcutaneously into seven-eight week old female C57BL/6J mice subcutaneously. On day 0, the mice were randomized based on tumor volume measurements and injected intraperitoneally with 200 μg of Antibody 2 constructs. Blood was collected via RO sinus on days two and four and processed with LiHep for plasma isolation. On day seven, blood was collected via cardiac puncture and process with LiHep for plasma isolation. Plasma was aliquoted and stored at −80 C until Western blot analysis. Standard samples where the masked antibody was treated in the presence or absence of protease in vitro were included as positive controls. For Western blot analysis, plasma samples were diluted in PBS, then in Laemmli Sample Buffer and βME. Samples were heated at 95° C. then loaded on a Criterion TGX Stain-free Precast gel. SDS-PAGE was performed at 200 V for forty-two minutes. Protein was transferred to nitrocellulose membrane and blocked in 1×TBS with 1% Casein Blocker for one hour at room temperature shaking. The membrane was probed with HRP-conjugated Rb mAb to human Kappa Light Chain [clone EPR5367-8], diluted 1:10,000 in Casein Blocker, overnight at 4° C. shaking. The membrane was washed three times with PBS-Tween and developed with SuperSignal ELISA Pico Chemiluminescent Substrate. Raw data was analyzed with ImageLab software.
as §1

| Molecule | activation in vivo (cleavage in plasma) |
| --- | --- |
| B1 | activated in vivo |
| B2 | not detected |
| B3 | not detected |
| B4 | not detected |
| B5 | not detected |
